This is an account of results in PubChem BioAssay AID463173 (ICCB-Longwood Screening Facility, Harvard Medical School, 2010).

About 4,300 (8.3%) of roughly 52,000 compounds were called active. Cut-off read from the data, not from the text of the source: active = survival mostly below about 52% (no sharp cut-off); inactive = mostly above about 56%. The list shows a part of the results.

The experiment deals with DeltatarO mutant. Description: growth inhibition of S. aureus wild type versus tarO mutant, primary screen, teichoic acid synthesis inhibitors, RN4220, OD600 (AID 463173). As to conditions: OD600, 18 h, stronger effect = lower value, screened at 18.75 µg/mL (by protocol).
As to `CN(C)C(=O)c1ccc2c(c1)N(CC(=O)NCc1ccccc1Cl)C(=O)C1CCCCN21` (centres undefined), the survival was inactive: 74%.
As for `COc1ccc(OC)c(CNC(=O)c2nn(C)c3c2CS(=O)(=O)c2ccccc2-3)c1`, the figure is inactive: 74%; as for `COC(=O)c1ccc(NC(=O)CCc2c(C)nc3c(c(C)nn3C(C)(C)C)c2C)cc1`, inactive: 59%.
Consider `CC(=O)Nc1ccc(Nc2c3c(c(C#N)c4nc5ccccc5n24)CCC3)cc1`, for which the survival was inactive: 91%.
For the molecule `CCN(C(=O)CSc1nc(-c2ccccc2)no1)c1ccccc1`, the survival is inactive: 79%.
On to `COc1ccc2c(c1)N(C)/C(=C1/SC(=Nc3ccc(C)cc3)N(C)C1=O)S2`, for which the survival is inactive: 102%.
For the molecule `Cc1ccc2occ(-c3cc(-c4ccc(F)cc4)nc4c3COc3ccc(F)cc3-4)c(=O)c2c1`, the survival was inactive: 92%.
`CCOc1cc(NS(=O)(=O)c2ccc(OC)cc2)c(OCC)cc1NC(=O)CC`: the survival is inactive: 75%.
For the molecule `O=S(=O)(Nc1ccc(-c2nc3ccccc3o2)cc1)c1ccccc1`, the survival is active: 24%.
As for `CCOC(=O)C1CCCN(C(=O)c2ccc3c(c2)N(Cc2cccc(Cl)c2)C(=O)c2ccccc2S3(=O)=O)C1` (centres undefined), the figure is inactive: 64%; as for `COc1ccc(C)cc1NC(=O)CN1C(=O)COc2ccc(S(=O)(=O)N3CCCCCC3)cc21`, inactive: 82%; as for `CCCN(C(=O)Cn1c(=O)oc2cc(Cl)ccc21)c1ccc(C(C)C)cc1`, active: 15%.
As for `CCC1CCc2c(sc(NC(=O)C3c4ccccc4Oc4ccccc43)c2C#N)C1` (centres undefined), the figure is inactive: 70%; as for `CCc1ccc(S(=O)(=O)c2cn(C)c3cc(OC)c(OC)cc3c2=O)cc1`, inactive: 121%; as for `COc1ccc(-n2ncc3c(=O)n(CC(=O)N4CC(C)CC(C)C4)cnc32)cc1` (centres undefined), inactive: 66%.
In the case of `CCOC(=O)c1nc(Nc2ccccc2C)c2ccccc2n1`, the survival is inactive: 49%.
In the case of `CCOc1cccc(C2c3[nH]c4ccccc4c3CCN2C(=O)CCc2ccccc2)c1` (centres undefined), the survival is inactive: 67%.
As for `CCCC1(C(=O)OCC)NC(c2ccccc2F)C2C(=O)N(c3ccccc3)C(=O)C21` (centres undefined), the figure is inactive: 88%; as for `CCN(CC)c1ccc(C(=O)N2CCC(c3ccncc3)CC2)cc1`, inactive: 88%.
Turning to `O=C(Nc1nc2ccc(Cl)cc2s1)c1ccc(S(=O)(=O)N2CCCC2)cc1`, the survival was inactive: 117%.
As for `Cc1cc(OCCn2cc(C(=O)c3ccco3)c3ccccc32)ccc1Cl`, the figure is inactive: 53%; as for `COc1ccccc1NC(=O)CSc1oc(-c2ccco2)nc1S(=O)(=O)c1ccc(Br)cc1`, inactive: 74%.
As for `COc1ccc(-c2nnc(SCC(=O)Oc3cccc(C)c3C)o2)cc1`, the figure is inactive: 65%; as for `O=C(Nc1ccccc1)c1ccncc1`, inactive: 97%.
As for `CCOc1ccccc1CNC(=O)CSc1n[nH]c(-c2ccccc2Cl)n1`, the figure is inactive: 82%.
`COc1ccc(CNC(=O)Cc2coc3ccc(C(C)C)cc23)cc1`: the survival was inactive: 79%.
As for `Cc1cc(C)c(S(=O)(=O)NCC(c2ccc(N(C)C)cc2)N2CCc3ccccc32)c(C)c1` (centres undefined), the figure is inactive: 92%.
As for `Cc1cc(Nc2cc(Cl)ccc2C)n2nc(Cc3ccccc3)nc2n1`, the figure is inactive: 50%; as for `Cc1ccc(C)c(CN2C(=O)c3ccccc3S(=O)(=O)c3ccc(C(=O)N4CCN(C)CC4)cc32)c1`, inactive: 87%.
As for `O=C(CN1C(=O)COc2ccc(S(=O)(=O)N3CCCCC3)cc21)NCc1ccccc1Cl`, the figure is inactive: 92%; as for `CCC(=O)Nc1nc(C)c(-c2csc(Nc3ccc(S(N)(=O)=O)cc3)n2)s1`, inactive: 114%; as for `CN(C)CCCN1C(=O)C2CCc3[nH]c4ccccc4c3C2C1=O` (centres undefined), inactive: 74%.
With `COc1ccc(-n2cc(C(=O)NCc3ccc(Cl)cc3)c3ccccc3c2=O)cc1`, the survival was inactive: 102%.
As for `CCOC(=O)C1=C(CN2CCN(c3cc(C)ccc3C)CC2)NC(=O)NC1c1ccccc1` (centres undefined), the figure is inactive: 80%; as for `O=S(=O)(c1cc(Cl)ccc1Cl)N1CCCC1`, inactive: 95%; as for `COc1ccc(N(C(=O)c2ccccc2C)S(=O)(=O)c2ccc(C)cc2)cc1`, inactive: 70%.
As for `Cc1ccc2c(c1)c1c(c(=O)n(-c3ccccc3)c(=O)n1CC(=O)NCCC1=CCCCC1)n2C`, the figure is inactive: 98%; as for `CCOC(=O)c1cc(-c2ccc(C)cc2)n(CC(=O)Nc2ccc(OC)c(Cl)c2)c1C`, inactive: 67%.
Turning to `Cc1ccc(CCNC(=O)c2cc3sccc3n2Cc2ccc(Cl)cc2)cc1`, the survival is inactive: 79%.
On to `COc1ccccc1Oc1nc2c(C)cccn2c(=O)c1/C=C(\C#N)c1nc2ccccc2[nH]1`, for which the survival was inactive: 71%.
As for `Cc1nn(CC(=O)NCc2cccc(F)c2)c(=O)c2c(C)n(-c3ccc(Cl)cc3)nc12`, the figure is inactive: 102%.
As for `CCCCCOC(=O)c1ccc(Nc2nc(C(=O)OCC)nc3ccccc23)cc1`, the figure is inactive: 60%; as for `Cc1ccc(C(C)C)c(OCC(=O)Nc2nc3c(s2)CCCC3)c1`, inactive: 91%.
As for `COc1ccc(S(=O)(=O)Nc2cc(-c3cn4cccc(C)c4n3)ccc2C)cc1C`, the figure is active: 53%.
Turning to `COc1ccc(NC(=O)CN2C(=O)C(C)Oc3ccccc32)cc1` (centres undefined), the survival was inactive: 89%.
As for `Cc1coc2c1c(C)cc1oc(=O)c(CC(=O)NCc3ccc(Cl)cc3)c(C)c12`, the survival is inactive: 63%.
As for `COc1cccc(CN2C(=O)C3(SCC(=O)N3c3cc(C)cc(C)c3)c3ccccc32)c1` (centres undefined), the figure is inactive: 71%.
For `O=C(c1ccc2c(c1)OCCO2)N(Cc1cccnc1)c1nc2ccc(Cl)cc2s1`, the survival is inactive: 95%.
On to `CCc1ccc2oc(C(=O)NCCc3ccc(OC)c(OC)c3)cc(=O)c2c1`, for which the survival is inactive: 52%.
In the case of `COc1ccccc1N1CCN(S(=O)(=O)c2cc(-c3cc(C)no3)ccc2C)CC1`, the survival is inactive: 81%.
Take `CCC(C)NC(=O)c1ccccc1NC(=O)C1CCN(S(=O)(=O)Cc2ccccc2)CC1` (centres undefined): the survival is inactive: 74%.
As for `Cc1ccc(-c2nnn(CC(=O)N(CC(=O)NCCC(C)C)c3ccc(F)cc3)n2)cc1`, the survival is active: 41%.
As for `COc1ccc(-c2nc(S(=O)(=O)c3ccccc3)c(N3CCCCC3)o2)cc1`, the figure is inactive: 74%; as for `CCN(Cc1nc(-c2ccc(OC)cc2)oc1C)S(=O)(=O)c1ccc(Cl)cc1`, inactive: 95%; as for `Cc1ccc(C)c(OCCCn2c(-c3ccc(Cl)cc3)nc3ccccc3c2=O)c1`, inactive: 67%.
Consider `COc1ccc(N2CCN(C(=O)c3cccn4c(=O)c5ccc(Cl)cc5nc34)CC2)cc1`, for which the survival was inactive: 113%.
`Cc1cccc(NC(=O)c2ccc(F)c(S(=O)(=O)N(C)C3CCCCC3)c2)c1`: the survival was inactive: 64%.
As for `CCOc1ccc(C(=O)N2CCN(Cc3cc(=O)n4nc(-c5cccc(OC)c5)sc4n3)CC2)cc1`, the figure is inactive: 90%.
Turning to `CC(=O)Nc1ccc(Nc2nc3ccc(C)cc3n3nnnc23)cc1`, the survival was inactive: 94%.
As for `CCOCCCNC(=O)C(c1ccc(Cl)cc1)N(Cc1ccc2c(c1)OCO2)C(=O)c1ccccc1O` (centres undefined), the figure is inactive: 54%; as for `COc1ccc(NC(=O)C(C)n2nc(C)c3c(C)n(-c4ccccc4)nc3c2=O)cc1Cl` (centres undefined), inactive: 105%; as for `O=C(COc1ccc(Br)cc1)N1CCOCC1`, inactive: 108%.
As for `CCc1cccc(C)c1NC(=O)COCc1cc(-c2ccc3c(c2)OCO3)on1`, the figure is inactive: 101%; as for `CCc1ccccc1NC(=O)C(=O)c1cc(C)n(-c2ccccc2F)c1C`, inactive: 87%.
As for `Cc1cc(C)c(Cn2c(C)c(CNCc3ccccc3C)c(C(=O)O)c2C)c(C)c1`, the figure is inactive: 70%.
`O=C(c1ccco1)N(Cc1cccnc1)c1nc2c(F)cccc2s1`: the survival was inactive: 87%.
Take `CC1CCCCN1C(=O)CSc1nc2ccccc2nc1Cc1ccc(Cl)cc1` (centres undefined): the survival was inactive: 87%.
Turning to `CCN1C(=O)c2ccccc2Sc2ccc(NC(=O)Nc3ccc(C(C)=O)cc3)cc21`, the survival is inactive: 52%.
As for `Cc1ccc(S(=O)(=O)NCCN2C(=N)N(c3nc(N(C)C)nc(N(C)C)n3)CC2=O)cc1`, the figure is inactive: 100%.
As for `Cc1ccccc1CNCCCSc1nnnn1-c1ccccc1`, the figure is inactive: 68%; as for `Cc1ccc2oc(=O)c3cnn(CC(=O)Nc4ccc(Br)cc4C)c3c2c1`, inactive: 96%.
For `CCOc1ccc(S(=O)(=O)c2cn(Cc3ccc(C)cc3)c3ccc(OC)cc3c2=O)cc1`, the survival is inactive: 94%.
For the molecule `CCOc1ccc2cc(-c3nnc(Nc4ccccc4F)s3)c(=O)oc2c1`, the survival is inactive: 73%.
As for `Cc1ccc(CNC(=O)COCc2cc(-c3ccc4c(c3)OCO4)on2)cc1`, the figure is inactive: 75%; as for `Cc1ccc(-c2cnc(NCc3ccc(C(C)C)cc3)n2C)cc1`, active: -4%.
On to `O=C(NCc1cccc(Br)c1)c1ccc(-n2cnc3cccnc32)cc1`, for which the survival is inactive: 125%.
`COc1ccc(-c2c[n+](=O)c3c(n2[O-])CCC3)cc1`: the survival is inactive: 81%.
For the molecule `Cc1ccc(-n2ncc3c(N4CCC(C)CC4)ncnc32)cc1C`, the survival was inactive: 94%.
On to `Cc1cccc(-c2noc(CNC(=O)c3ccc(C)cc3C)n2)c1`, for which the survival was active: 37%.
As to `COc1cc(OC)cc(-c2nc3nc(C)c(CCC(=O)Nc4ccc(C)cc4)c(C)n3n2)c1`, the survival is inactive: 82%.
As for `Nc1c(C(=O)Nc2ccccc2Cl)nnn1Cc1cccc(Cl)c1`, the figure is inactive: 94%; as for `Cc1ccc(NCc2nc3ccccc3n2CCOc2ccccc2C)cc1`, active: 3%; as for `Cc1c(CCNS(=O)(=O)c2ccccc2)sc2nc(-c3ccc(Cl)cc3)nn12`, active: 6%.
On to `CCNc1nc2c(c(=O)n(C)c(=O)n2C)n1CC(O)COc1ccccc1` (centres undefined), for which the survival was inactive: 61%.
As to `COc1ccc(NC(=O)Nc2cccc(C)n2)c(OC)c1`, the survival was inactive: 96%.
As for `Cc1c2cnn(CC(=O)O)c(=O)c2c(C)n1Cc1cccc(Cl)c1`, the figure is inactive: 91%.
As for `O=C(CC1N=C2c3ccccc3N=C(SCc3ccc(Cl)cc3)N2C1=O)NC1CCCCC1` (centres undefined), the figure is inactive: 78%; as for `Cc1cc2c(cc1S(=O)(=O)CCC(=O)Nc1ccc(OC(F)(F)F)cc1)OCC(=O)N2`, inactive: 87%.
Take `O=C(NCC(c1ccc(Cl)cc1)N1CCCCC1)c1ccccc1` (centres undefined): the survival is inactive: 61%.
